Values joined by “and” are separate entries in the source; they are usually repeats but may differ in a detail not shown here. Equal values may be shown once. Hit rate of the full screen: of about 74,000 compounds, about 1,100 (1.5%) were called active. Inconclusive results, whose numbers are uncertain, are shown with a selection of clear calls. The call rests on the fitted dose curve; in most records, active means well fitted inhibition curve with a large enough effect; inconclusive means small, poorly fitted or top-dose-only effect; inactive means no such curve, though single readings can be large or run the other way. No potency is given beside an inconclusive call; the fits are too rough.
Target: Polyunsaturated fatty acid lipoxygenase ALOX15 (Homo sapiens) (UniProt P16050)
Sequence of UniProt P16050 (P16050 whole entry, looked up): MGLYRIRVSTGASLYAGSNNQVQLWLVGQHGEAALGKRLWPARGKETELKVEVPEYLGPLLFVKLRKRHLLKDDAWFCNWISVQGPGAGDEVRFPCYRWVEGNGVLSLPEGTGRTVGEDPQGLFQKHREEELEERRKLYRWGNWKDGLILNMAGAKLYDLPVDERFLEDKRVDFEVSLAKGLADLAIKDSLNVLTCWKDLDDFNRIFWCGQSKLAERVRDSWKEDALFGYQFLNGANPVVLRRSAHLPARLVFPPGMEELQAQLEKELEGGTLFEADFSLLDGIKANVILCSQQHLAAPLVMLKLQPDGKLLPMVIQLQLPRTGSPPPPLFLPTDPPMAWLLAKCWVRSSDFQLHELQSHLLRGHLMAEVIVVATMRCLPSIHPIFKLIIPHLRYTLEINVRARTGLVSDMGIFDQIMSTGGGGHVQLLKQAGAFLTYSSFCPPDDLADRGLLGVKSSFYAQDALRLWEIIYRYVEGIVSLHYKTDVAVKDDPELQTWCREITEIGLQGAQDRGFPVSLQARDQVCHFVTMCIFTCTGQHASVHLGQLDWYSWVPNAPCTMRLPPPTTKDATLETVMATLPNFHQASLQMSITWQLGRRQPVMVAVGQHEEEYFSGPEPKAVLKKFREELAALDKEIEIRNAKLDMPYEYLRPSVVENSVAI
Test: qHTS Assay for Inhibitors of 15-hLO (15-human lipoxygenase); further: nearly all actives have a fitted effect of over 55% in size
Details: purified 15hLO-1, xylenol orange hydroperoxide absorbance; activity change, negative = inhibition: at 57.1 µM (top of the series) unless noted
Excerpt: Assay Overview: NIH Molecular Libraries Screening Centers Network [MLSCN] NIH Chemical Genomics Center [NCGC] MLSCN Grant: MH081283-01A1 PI Name: Holman, T.R., University of California, Santa Cruz Human lipoxygenase 15hLO-1 is a member of the closely related lipoxygenase family of enzymes which catalyze the site-specific oxidation of arachidonic acid to various hormone precursor molecules and as such is a candidate for drug development in a variety of disease areas, such as cancer and inflammation. Inhibition of 15hLO-1 activity was screened by utilizing arachidonic acid as a substrate. The extent of hydroperoxide product formation was measured by a secondary chromogenic reaction in which xylenol orange (XO, Sigma-Aldrich, cat. number 39,818-7) reacts with the ferric ions produced from the reaction between the hydroperoxide and ferrous ions. The Fe(III)-XO complex is characterized with red-shifted absorbance at 560 nm. A purified preparation of human 15hLO-1 was supplied by Professor Ted Holman, University of California, Santa Cruz.
Assay Protocol: Buffer: 25 mM Hepes pH 7.5, 0.01% Triton X-100. Reagents/Controls: Buffer in columns 3 and 4 as negative control (no enzyme). Substrate solution: 50 uM arachidonic acid (Sigma-Aldrich, St. Louis, MO) final concentration dispensed throughout the plate. Enzyme: 40 nM 15hLO-1 final concentration in columns 1, 2, 5-48. Column 1 is neutral (100% activity). Column 2 contained pin-transferred titration of NDGA (nordihidroguaiaretic acid, Sigma-Aldrich, N 5023, top concentration 10 mM in DMSO, then 1:2 dilution in duplicate). (Dilution factor: 23 nL into 4 uL.) Chromogenic detection reagent (divalent iron/xylenol orange, Fe-XO): 200 uM xylenol orange plus 300 uM ferrous ammonium sulfate prepared freshly in 50 mM sulfuric acid. Assay Steps: Three uL of enzyme were dispensed to 1536-well Greiner black clear bottom plates. Compounds and controls (23 nL) were transferred via Kalypsys PinTool. The plates were incubated for 15 min at room temperature, and then 1 uL of substrate solution was added to start the reaction. After room temperature incubation for 6 minutes, 4 uL of Fe-XO solution was added to each well followed by a short spin (1000 rpm, 15 sec) and the plates were then incubated for 30 min. The absorbance at 405 and 573 nm were measured using ViewLux (Perkin-Elmer) High-throughput CCD imager and absorbance protocol settings. The 573-to-405 absorbance ratio was used to compute reaction progress.
On the % scale 0 is the no-effect control and ±100 the full control effect; potency means the concentration at half of the fitted maximal effect; tags describe the fitted curve by direction and shape.

Q: With CCCc1nc2ccccc2c(=O)n1/N=C/c1ccccc1O as the compound, how does the Potency read?
A: inconclusive [inhibitor, single point]

Q: How did the Potency turn out when Cc1ccc2cc(CN(CCN3CCCC3)C(=O)Nc3ccc(F)cc3)c(=O)[nH]c2c1C was run?
A: inconclusive [inhibitor, single point]

Q: Which Potency does the source give for CC(=O)c1c(C)[nH]c(C(=O)CSc2nnc(-c3ccco3)n2Cc2ccccc2)c1C here?
A: inconclusive [inhibitor, partial curve]

Q: How did the Potency turn out when CCOCCOCC was run?
A: inactive

Q: Which Potency does the source give for Oc1ccc(O)c2c(O)cccc12 here?
A: inconclusive [inhibitor, full curve]

Q: Cc1cc(C(=O)Nc2sc3c(c2C#N)CCCCC3)cs1 was tested. Which Potency did it give?
A: inconclusive [inhibitor, single point]

Q: C=CCn1c(SCC(=O)NC2CCCC2)nc2scc(-c3ccco3)c2c1=O was tested. Which Potency did it give?
A: inconclusive [inhibitor, partial curve]

Q: Cc1cc(-c2ccc(N=Nc3cc(S(=O)(=O)O)c4ccccc4c3N)c(C)c2)ccc1N=Nc1cc(S(=O)(=O)O)c2ccccc2c1N was tested. Which Potency did it give?
A: active: 0.398 µM

Q: Cc1nc2sccn2c1-c1csc(NCc2ccccc2)n1 was tested. Which Potency did it give?
A: inactive

Q: With N=c1n(Cc2ccccc2)c2ccccc2n1CC(O)c1ccco1 (stereo not drawn) as the compound, how does the Potency read?
A: inconclusive [inhibitor, partial curve]

Q: With Cc1ccccc1C as the compound, how does the Potency read?
A: inactive

Q: For CNC1C(O)C(O[C@H]2C(O)[C@@H](OC3OC(CN)=CCC3N)[C@H](N)C[C@@H]2N)OC[C@]1(C)O (stereo partly drawn), which Potency is on record?
A: inactive

Q: For COc1ccc(-c2nnc3n2N=C(c2ccccc2)CS3)cc1OC, which Potency is on record?
A: inactive

Q: O=C(O)c1cc(S(=O)(=O)Nc2ccc3oc(=O)sc3c2)ccc1O was tested. Which Potency did it give?
A: inconclusive [inhibitor, partial curve]

Q: How did the Potency turn out when S=C(c1ccc(N2CCOCC2)cc1)N1CCOCC1 was run?
A: inconclusive [inhibitor, single point]

Q: For C#CCCCO/N=C1/C[C@@H](O)[C@@H](O)[C@@H]2[C@@H]3C(=O)N(CCC(=O)OCC)C(=O)[C@H]3CC[C@H]12, which activity change, negative = inhibition is on record?
A: inactive: -5.47% [at 11.4 µM]

Q: Which Potency does the source give for COc1ccc2nc(N3CCCC3)c(C#N)cc2c1 here?
A: inconclusive [inhibitor, partial curve]

Q: With O=C(/C=C/c1ccccc1)c1ccc(O)cc1O as the compound, how does the Potency read?
A: active: 20 µM

Q: With Cc1ccc2[nH]c(=O)c3cc(C(=O)NCCN4CCN(C)CC4)sc3c2c1 as the compound, how does the Potency read?
A: inactive

Q: For COc1cc2cc(CN(CCN3CCCC3)C(=O)Nc3ccc(F)cc3)c(=O)[nH]c2cc1OC, which Potency is on record?
A: inconclusive [inhibitor, partial curve]

Q: O=S(=O)(c1ccccc1)N1CCC[C@@]2(CCN(c3cccc(-c4ccccc4)c3)C2)C1 was tested. Which Potency did it give?
A: inconclusive [inhibitor, single point]

Q: For Cc1ccc(N(CC(=O)Nc2cccc(C)c2)S(=O)(=O)c2cccc3nonc23)cc1, which Potency is on record?
A: inconclusive [inhibitor, partial curve]

Q: Which Potency does the source give for CC(C)c1ccc(-c2nnn(CCC(=O)O)n2)cc1 here?
A: active: 1.58 µM

Q: How did the Potency turn out when CC(C)=CCCC(C)N(C=O)C(C)CCC=C(C)C (stereo not drawn) was run?
A: active: 7.94 µM

Q: For CCn1c(SCC(=O)Nc2ccc(NC(=O)c3ccco3)c(OC)c2)nc2ccccc2c1=O, which Potency is on record?
A: inconclusive [inhibitor, single point]

Q: With CSc1nc2ccc(Nc3nc(N4CCOCC4)nc(N4CCOCC4)n3)cc2s1 as the compound, how does the Potency read?
A: inconclusive [inhibitor, full curve, poor fit]

Q: O=C1c2ccccc2C(Cc2ccncc2)(Cc2ccncc2)c2ccccc21 was tested. Which Potency did it give?
A: inconclusive [inhibitor, full curve, poor fit]

Q: How did the Potency turn out when O=C(Cc1ccc2c(c1)OCCO2)c1c(O)cc(O)cc1O was run?
A: inconclusive [inhibitor, partial curve]

Q: CCNc1ncc2ncc(=O)n(C[C@H]3CCCO3)c2n1 was tested. Which Potency did it give?
A: inactive

Q: For COc1ccccc1C(=O)Nc1ccc(C(=O)O)cc1, which Potency is on record?
A: inactive

Q: How did the Potency turn out when COc1ccc(N2CCN(Cc3nc4c(c(=O)n(C)c(=O)n4C)n3Cc3ccccc3C)CC2)cc1 was run?
A: inconclusive [inhibitor, single point]

Q: For NCCC(=O)O, which Potency is on record?
A: inactive

Q: CC(=O)c1ccc(OCCCC(=O)n2nnc3ccccc32)cc1 was tested. Which Potency did it give?
A: inconclusive [inhibitor, full curve]

Q: COCCn1c(C)cc(C(=O)COC(=O)c2c(C)nn(Cc3ccccc3)c2C)c1C was tested. Which Potency did it give?
A: inconclusive [inhibitor, partial curve]

Q: Which Potency does the source give for Cc1cc(N2CCN(C3CCCCC3)CC2)nc2cccc(O)c12 here?
A: inconclusive [inhibitor, partial curve]

Q: With N#CC1=C(C2CC2)CC(c2ccccc2)C(C#N)=C1N (stereo not drawn) as the compound, how does the Potency read?
A: inconclusive [inhibitor, single point]

Q: How did the Potency turn out when O=C1CCc2cc(S(=O)(=O)N3CCC(C(=O)NCCC4=CCCCC4)CC3)ccc2N1 was run?
A: inconclusive [inhibitor, single point]

Q: For O=c1ccsn1Cc1ccccc1, which Potency is on record?
A: inconclusive [inhibitor, full curve]

Q: For CC(=O)Nc1nc(C)c(-c2csc(Nc3ccc(O)cc3)n2)s1, which Potency is on record?
A: active: 12.6 µM

Q: CCCOc1ccccc1NC(=O)CC1Nc2ccccc2NC1=O (stereo not drawn) was tested. Which Potency did it give?
A: inconclusive [inhibitor, partial curve]

Q: O=C(COC(=O)c1ccc(S(=O)(=O)NCc2ccco2)cc1)Nc1ccccc1OC(F)F was tested. Which Potency did it give?
A: inactive

Q: How did the Potency turn out when CCn1c(CNc2ccc(OC)cc2)nnc1SCC(=O)c1ccc(OC)cc1 was run?
A: inconclusive [inhibitor, single point]

Q: CC(C)(c1cc(Br)c(O)c(Br)c1)c1cc(Br)c(O)c(Br)c1 was tested. Which Potency did it give?
A: active: 15.8 µM and active: 2.51 µM

Q: With O=C(CC1Oc2ccccc2NC1=O)NCc1ccccc1 (stereo not drawn) as the compound, how does the Potency read?
A: inactive

Q: Cc1cccc(-n2ncc3c(N4CCCC4)ncnc32)c1 was tested. Which Potency did it give?
A: inactive

Q: For CCCc1cc2c(c(=O)o1)C(O)C1OC1C2=O (stereo not drawn), which Potency is on record?
A: inconclusive [inhibitor, single point]

Q: Which Potency does the source give for COc1cc2[nH]c(=S)n(CC3CCCO3)c(=O)c2cc1OC (stereo not drawn) here?
A: inactive

Q: For Cc1ccc(Cn2nnc3c(=O)[nH]c(C4CCN(S(=O)(=O)c5ccc(F)cc5)CC4)nc32)cc1, which Potency is on record?
A: inconclusive [inhibitor, partial curve]

Q: With CC(=O)c1cccc(NC2c3ccccc3C(=O)N2Cc2ccc3c(c2)OCO3)c1 (stereo not drawn) as the compound, how does the Potency read?
A: inactive

Q: For N=c1n(CCN2CCCCC2)c2ccccc2n1CC(O)COc1ccccc1 (stereo not drawn), which Potency is on record?
A: inconclusive [inhibitor, single point]

Q: Which Potency does the source give for O=C(Cn1ncn2c(cc3ccccc32)c1=O)NCCC1=CCCCC1 here?
A: active: 15.8 µM

Q: With COc1cc2c(cc1OC)C(=O)OC2 as the compound, how does the Potency read?
A: inactive

Q: Nc1c(S(=O)(=O)O)cc(Nc2cccc(S(N)(=O)=O)c2)c2c1C(=O)c1ccccc1C2=O was tested. Which Potency did it give?
A: inconclusive [inhibitor, partial curve]

Q: Which Potency does the source give for Cc1cccc(NC(=O)Cn2c(=O)n(Cc3ccco3)c(=N)c3c4c(sc32)COC(C)(C)C4)c1 here?
A: inactive

Q: For C=CCNc1ncnc2c1cnn2-c1ccc(Cl)cc1, which Potency is on record?
A: inconclusive [inhibitor, full curve, poor fit]

Q: Which Potency does the source give for Cc1ccccc1N1C(=O)C(Cl)=C(N2CCCCCC2)C1=O here?
A: active: 10 µM

Q: CCN(CC)CCCCC1CCN(CC(=O)N2c3ccccc3C(=O)Nc3cccnc32)CC1 was tested. Which Potency did it give?
A: inconclusive [inhibitor, single point]

Q: Which Potency does the source give for O=C(Nc1nc2ccccc2n1CCOc1ccccc1)c1ccco1 here?
A: inactive

Q: N#Cc1cccc(-c2cncnc2-n2ccnc2)c1 was tested. Which Potency did it give?
A: inconclusive [inhibitor, partial curve]

Q: With COc1cc2nc(C)sc2cc1SC as the compound, how does the Potency read?
A: inconclusive [inhibitor, single point]

Q: With Cn1cccc1C1NC(=O)c2c(sc3c2CCC(C(C)(C)C)C3)N1 (stereo not drawn) as the compound, how does the Potency read?
A: inconclusive [inhibitor, partial curve]

Q: Nc1nc(-c2ccc(Br)s2)c(Br)s1 was tested. Which Potency did it give?
A: inconclusive [inhibitor, partial curve]

Q: With O=c1cc(CO)oc(CN2CCC(Cc3ccccc3)CC2)c1O as the compound, how does the Potency read?
A: inconclusive [inhibitor, partial curve]

Q: With O=C(Nc1ccc(F)cc1)NC1CCN(Cc2nnnn2Cc2ccco2)CC1 as the compound, how does the Potency read?
A: inactive

Q: With CCOC(=O)c1ccc(N2C(=O)CC(N3CCN(C/C=C/c4ccccc4)CC3)C2=O)cc1 (stereo not drawn) as the compound, how does the Potency read?
A: inconclusive [inhibitor, single point]

Q: Which Potency does the source give for CCOc1cc(S(=O)(=O)N2CCC(Cc3ccccc3)CC2)c(OCC)cc1-n1cnnn1 here?
A: inconclusive [inhibitor, partial curve, poor fit]

Q: How did the Potency turn out when O=C1C(=C2CCCCC2)SC(=S)N1Cc1ccco1 was run?
A: active: 3.98 µM

Q: With COc1ccc2ccccc2c1C(O)c1nccn1C (stereo not drawn) as the compound, how does the Potency read?
A: inconclusive [inhibitor, partial curve]

Q: Which Potency does the source give for O=c1c(-c2ccc(F)cc2)nc2cnc(Nc3ccccc3)nc2n1Cc1cccs1 here?
A: inactive

Q: For COC(=O)[C@H]1C(OC)[C@@H](OC(=O)c2cc(OC)c(OC)c(OC)c2)C[C@@H]2CN3CCc4c([nH]c5cc(OC)ccc45)[C@H]3C[C@H]21 (stereo partly drawn), which Potency is on record?
A: inconclusive [inhibitor, partial curve]

Q: Which Potency does the source give for COc1ccccc1N=c1oc2cc(O)ccc2cc1C(N)=O here?
A: inconclusive [inhibitor, single point]

Q: For CC(C)(C)c1cc(/C=C(\C#N)C(N)=S)cc(C(C)(C)C)c1O, which Potency is on record?
A: inconclusive [inhibitor, partial curve]

Q: CCCCSc1nc2c(cc1C#N)CCC2 was tested. Which Potency did it give?
A: inconclusive [inhibitor, single point]

— PubChem BioAssay AID887 (National Center for Advancing Translational Sciences (NCATS), 2007)
